Results from the RNAGym collection of RNA variant scans (doi:10.7554/elife.90254).
The source gives no read counts; variants with many changes may rest on few reads.

B1: LINE1-mini (parent)
chain: GGCAGAGCUCAACACAGCGUGGCAAAGUGGCUGUGGCUAGACUGCC

Variants of: B1
Test: self-cleavage, relative activity (ratio to wild type); higher = more cleavage; in vitro, sequencing; the parent is a self-cleaving ribozyme

Row | Variant | self-cleavage
1 | G1U C8A U9C U20G U32A G35C C37G G40U | 0.01
2 | G1U C3A U9C C18A G30C G33A U34G | 0.04
3 | G1U A26C U38A | 0.08
4 | G1U A16G U20A | 0.07
5 | G1U A12U A16U A26C U34A G40U U43A | 0.01
6 | G1U A14U G30U G33C A41U | 0.02
7 | G1U A14G G17A G36U C46G | 0.02
8 | G1U C3A G5C G35A A39G | 0.11
9 | G1U A14U G40C | 0.05
10 | G1U A16C C18G G19A U32A | 0.03
11 | G1U C3A G21U C37A | 0.44
12 | G1U A14G G22C G27A G36C | 0.01
13 | G1U A12U U43A | 0.04
14 | G1U A25U G35C C46A | 0.01
15 | G1U C3A C46A | 0.08
16 | G1U A14G A16C G17C | 0
17 | G1U A12C C18A G19U A24C G29A C42A | 0
18 | G1U A12U C13U G21U A26U C31U C37A U38C | 0.01
19 | G1U A12G A14U C23A A39G C45U | 0
20 | G1U A26U C45U | 1.28
21 | G1U C3A C45G | 0.26
22 | G1U A25U A39G | 0.04
23 | G1U A12G C18G G22U | 0.02
24 | G1U C8U G40A C45G | 0.03

Row | Variant | self-cleavage
25 | G1U A16U G30U C31U G35C | 0.03
26 | G1U A26C G35U A39U G40U C46A | 0.12
27 | G1U A14G G21U | 0.17
28 | G1U C3G U34C C37G | 0.11
29 | G1U A25C G40C G44C | 0.01
30 | G1U A14G G22C | 0.03
31 | G1U A39G U43G | 0.05
32 | G1U C8U U9A A11C A14U G29C C31U | 0
33 | G1U A14C G35A | 0
34 | G1U A24G G27C G40U | 0.04
35 | G1U C8U C15A G21A | 0.07
36 | G1U A12C C18U G19C U28G | 0.01
37 | G1U C3A C8G A12G U20C | 0.01
38 | G1U C3A C8G G36A | 0.1
39 | G1U C8A C13U A41C C45A C46U | 0.11
40 | G1U C8U C23G G33U | 0.08
41 | G1U C3A G27A U28G C46A | 0.22
42 | G1U A24C U28C C37U G40C | 0.01
43 | G1U A14U G29U | 0.04
44 | G1U C3G A6C C18U G21C A26C C45A | 0.52
45 | G1U C8A C10A C45G | 0
46 | G1U A16U C45A C46G | 0.02
47 | G1U C8A A24C | 0.09
48 | G1U C8G A14U U32A G40A | 0.01

Row | Variant | self-cleavage
49 | G1U C8A U32C G33A | 0.04
50 | G1U A16G G17A A24G U28A | 0
51 | G1U A14G U32G U34C G36A C37U | 0.02
52 | G1U A16G G40A | 0.04
53 | G1U C3U C18A U28C U32A | 0.08
54 | G1U C3G A6G C8G G17U C18A G22C | 0.72
55 | G1U C8U C15G | 0.04
56 | G1U C3G A4G G5C U20G | 0
57 | G1U C3U G21C | 0.12
58 | G1U C8A A39G | 0.39
59 | G1U C8U G17C A41U | 0.08
60 | G1U A14C C45U | 0.03
61 | G1U C8G C10A C18A G35U | 0.01
62 | G1U C3U C37A | 0.14
63 | G1U A26G C37A A39G C46U | 0.02
64 | G1U C3U G7A C8U A14G A26C U38A | 0.72
65 | G1U C8U C18U G22C A24U | 0.16
66 | G1U A16C A25C | 0.12
67 | G1U C8A G27C U34C G35C G36U C46A | 0.02
68 | G1U A14U U38G | 0.01
69 | G1U C3G C10A A24G U34C C46U | 0.03
70 | G1U C3A G5C U9C C15U G33U G35A | 0.25
71 | G1U A25G A26C G44C | 0.31
72 | G1U C8A U38A C45G | 0.17

Row | Variant | self-cleavage
73 | G1U C3U U9A A41C | 0.06
74 | G1U A24G A25C G40A | 0.03
75 | G1U C8U C45A | 0.05
76 | G1U A25G C46U | 0.06
77 | G1U C3G G35A G40C | 0.08
78 | G1U A25C G30A C45G | 0.05
79 | G1U C3A G30A | 1.51
80 | G1U C3A G30U | 0.87
81 | G1U C3G A24C C37A G40U C46U | 0.07
82 | G1U C8A A16C G22U | 0.11
83 | G1U C3G A4G A24U | 0.01
84 | G1U C3A G5U G40U | 0
85 | G1U A16G C37G | 0.02
86 | G1U A14U G17A C23A G44U | 0.03
87 | G1U A14C G22A A25U A41U | 0.01
88 | G1U C3A A11C G27A | 0.1
89 | G1U C3A C15U C18U G21U A24U G35A U38A | 0.27
90 | G1U A12G A41C | 0.05
91 | G1U C3U A16C G22C | 0.03
92 | G1U C8U A26G G33U | 0.03
93 | G1U A14U A16U | 0.04
94 | G1U A26G A39U | 0.06
95 | G1U C3U A26C G27C | 0.09
96 | G1U A26G U28C C31A | 0.04

Row | Variant | self-cleavage
97 | G1U C8U C10G A25G | 0.01
98 | G1U A16G A39G A41U G44U | 0.17
99 | G1U C8G A12G C45G C46A | 0.01
100 | G1U C3A C18A C23U | 1.85
101 | G1U C3A C10A A14C A16C G30C G35U | 0.03
102 | G1U C3U G5C C10A C18U U20C C46G | 0.03
103 | G1U C8A U32G G40A C46A | 0.08
104 | G1U C3U A25U G44C C45A | 0.13
105 | G1U A14G G29U C46U | 0.52
106 | G1U A26G G35U | 0.08
107 | G1U A14G G29U U34G G40C | 0
108 | G1U A25U C31A | 0.04
109 | G1U A14U U43A | 0.02
110 | G1U A14U U43G | 0
111 | G1U C8G A24U U32A G33U C37U U43A | 0.01
112 | G1U A16G A26U U32A C37A G40U | 0.04
113 | G1U A12U A26U A41G | 0.01
114 | G1U C3G C10G | 0.02
115 | G1U C3U A25G U28C | 0.19
116 | G1U C3A G5A A11U G19C U32C A39U | 0.05
117 | G1U A25C C37U | 0
118 | G1U A14G C37U | 0.24
119 | G1U C8A C13G C45A | 0.06
120 | G1U C8G G22U G40A | 0.03

Row | Variant | self-cleavage
121 | G1U C8U C15A C23A C31A G44C | 0.01
122 | G1U C3G G29A G44A | 0.15
123 | G1U A16U C23A | 0.05
124 | G1U C8U U9C | 0.05
125 | G1U C8G A39C | 0.1
126 | G1U C3G G19A A26U G35A U38C | 0.06
127 | G1U A24C G33U U38C | 0.01
128 | G1U A12G G19A A39C G40U | 0
129 | G1U C3G G19C A26C | 0.08
130 | G1U C8U G33A | 0.22
131 | G1U A16G A26U G40C | 0
132 | G1U C8U G40U A41G | 0.03
133 | G1U C8G C15A | 0.05
134 | G1U C8A G29U | 0.25
135 | G1U A14G G19A A41U | 0.19
136 | G1U A16G U34G | 0.04
137 | G1U C3U C13A U20C C46U | 0.24
138 | G1U C3A G7C C8A A14G U20G G21C A26C C37A | 0.26
139 | G1U C3U G7U C23G C31G G36U G40C | 0.03
140 | G1U A14C C15A C23U G30C C46G | 0.03
141 | G1U A26U G33C | 0.04
142 | G1U A16G C18A C37G A39G | 0
143 | G1U C8G C10A A12G U20G U34G C46G | 0
144 | G1U C8U C10G C23U C45A | 0

Row | Variant | self-cleavage
145 | G1U C8A A14G C42A | 0.19
146 | G1U C8G G33A C46G | 0.03
147 | G1U C8A G30U C31A | 0.04
148 | G1U C3U C13A A16C G21U | 0.29
149 | G1U A12C C18A G27C G40U G44C | 0
150 | G1U A14U G36C | 0.01
151 | G1U A14U G36U | 0.03
152 | G1U C3A A6G | 0.32
153 | G1U A14G U28G U32A G40U C42U U43C | 0.01
154 | G1U C3U A26U | 0.88
155 | G1U C3A C42U C46U | 1.13
156 | G1U A12G A25C U38A | 0.05
157 | G1U C3G G21C G30C | 0.81
158 | G1U C8U C18G U28A U34C | 0.04
159 | G1U A14C G30A | 0.21
160 | G1U C8U A14U G21U G36U | 0.06
161 | G1U C8A C42A | 0.12
162 | G1U A16G G29U G40A | 0.02
163 | G1U C8U C10A C13A C31U G33U | 0.01
164 | G1U C3U C10A | 0.04
165 | G1U A16U G29A G30A | 0.04
166 | G1U A39G G40A | 0.01
167 | G1U C8G G44C | 0.02
